In PubChem BioAssay AID504845 (National Center for Advancing Translational Sciences (NCATS), 2011):
About 150 (0.038%) of roughly 390,000 compounds were called active. This list was built around the results that the source calls inconclusive (neither active nor inactive); the mix of calls is not that of the screen. Calls follow the shape of the dose curve; as a rule, active = well fitted inhibition curve with a large enough effect; inconclusive = small, poorly fitted or top-dose-only effect; inactive = no such curve, though single readings can be large or run the other way. Potencies beside an inconclusive call are fits to weak or partial responses and may not hold up.

The compounds below were run against Regulator of G-protein signaling 4 (Homo sapiens) (UniProt P49798) (assay: Inhibitors of Regulator of G Protein Signaling (RGS) 4: qHTS). Settings: Transcreener GDP fluorescence polarization, RGS4-accelerated GTP hydrolysis; series mostly up to 114 µM; activity change, negative = inhibition: at the top concentration.
How it was run: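 MLSMR compounds (23 nl, pin-transferred) preincubated 10 min at room temperature with a 500nM (2x) first reagent, then RGS4 at 900nM (2x) plus Transcreener GDP mix added; fluorescence polarization (620/688 nm) read before and after 90 min at 30 °C.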
% is scaled to controls: 0 for no effect and ±100 for the full control effect; potency is read from the fitted curve at half-maximal effect; tags tell the direction and shape of the fitted curve.
Also: nearly all actives have a fitted effect of over 75% in size.

UniProt P49798, sequence (P49798 whole entry, looked up): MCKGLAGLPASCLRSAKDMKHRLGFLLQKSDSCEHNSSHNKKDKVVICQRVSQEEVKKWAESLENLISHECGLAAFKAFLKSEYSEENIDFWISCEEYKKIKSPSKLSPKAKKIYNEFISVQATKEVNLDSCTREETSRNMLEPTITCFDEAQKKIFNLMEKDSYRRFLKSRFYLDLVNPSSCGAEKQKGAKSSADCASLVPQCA

| Structure (SMILES) | activity change, negative = inhibition | Potency |
| --- | --- | --- |
| COc1ccc(CC2(CO)CCN(Cc3cc4ccccc4o3)CC2)cc1 | inactive: 8.42% | – |
| O=C(COc1ccc(/C=N/NC(=O)c2ccc(O)cc2)cc1)Nc1cccc([N+](=O)[O-])c1 | – | inconclusive: 31.6 µM [inhibitor, full curve, poor fit] |
| COc1ccc(CCNc2nc(=S)[nH]c3cc(OC)c(OC)cc23)cc1OC | inactive: -38.8% | – |
| CCc1nc(Nc2ccc3c(c2)OCO3)c2oc3ccccc3c2n1 | – | inconclusive: 79.4 µM [inhibitor, single point] |
| O=C(NCCc1ccccc1)C1COc2ccccc2O1 (configuration not stated) | inactive: -23.4% | – |
| CCc1cc(=O)oc2cc(OCC(=O)N(CC)CC)c(Cl)cc12 | – | inconclusive: 79.4 µM [inhibitor, partial curve, poor fit] |
| CCCCC/C=C\C/C=C\C/C=C\CCCCC(=O)O | – | inconclusive: 50.1 µM [inhibitor, partial curve, poor fit] |
| COc1ccc(N2Cc3cccc(C(=O)NC(C)CCc4ccco4)c3C2=O)cc1 (configuration not stated) | – | inconclusive: 100 µM [inhibitor, partial curve, poor fit] |
| CCCCCn1c(=N)n(CC(O)COc2ccccc2OC)c2ccccc21 (configuration not stated) | – | inactive |
| CCCc1ccc(-c2cc(C(=O)N3CCN(c4ccccn4)CC3)c3ccccc3n2)cc1 | inactive: 6.24% | – |
| CCOc1ccc(OCCn2c(=S)[nH]c3ccccc32)cc1 | – | inconclusive: 17.8 µM [inhibitor, full curve, poor fit] |
| Cc1cccc(NC(=O)Nc2cccc(C#N)c2)n1 | – | inconclusive: 89.1 µM [inhibitor, partial curve, poor fit] |
| COCc1c(C(=O)N2CCN(Cc3nc4ccccc4s3)CC2)oc2ccccc12 | – | inconclusive: 89.1 µM [inhibitor, single point] |
| c1ccc(CCc2cn(C[C@H]3CC[C@@H]([C@@H]4CC[C@H](Cn5cc(CCc6ccccc6)nn5)O4)O3)nn2)cc1 | – | inconclusive: 17.8 µM [inhibitor, full curve, poor fit] |
| COc1ccccc1C1/C(=C(/O)c2ccc(C)cc2)C(=O)C(=O)N1Cc1ccco1 (configuration not stated) | – | inconclusive: 35.5 µM [inhibitor, partial curve, poor fit] |
| COc1ccc2c(c1OC)C(=O)N1N=C(c3ccc(F)cc3)CC21 (configuration not stated) | – | inconclusive: 22.4 µM [inhibitor, full curve, poor fit] |
| C[C@H](NCCc1ccc(O)cc1)[C@H](O)c1ccc(O)cc1 | inactive: -13.1% | – |
| Cc1nn(-c2ccccc2)c(NC(=O)c2cccs2)c(-c2ccccc2Cl)c1=O | inactive: 6.11% | – |
| CNCCOc1ccccc1C(C)(C)C | inactive: -23.6% | – |
| CCOC(=O)/C=C/S(=O)(=O)c1ccc(NC(C)=O)cc1 | – | inconclusive: 89.1 µM [inhibitor, partial curve, poor fit] |
| CCc1oc2ccccc2c1C(=O)CCN1CCCCC1 | – | inconclusive: 89.1 µM [inhibitor, partial curve, poor fit] |
| CCOc1ccc(Oc2nc(C)cc(OC)n2)nn1 | – | inconclusive: 50.1 µM [inhibitor, partial curve, poor fit] |
| O=C(N/N=C/c1ccc(OC(=O)c2ccccc2)cc1)c1cccc(O)c1 | – | inconclusive: 39.8 µM [inhibitor, partial curve, poor fit] |

| Structure (SMILES) | activity change, negative = inhibition | Potency |
| --- | --- | --- |
| O=C(O)CN1C(=O)/C(=C\c2cccc(OCc3ccc(F)cc3)c2)SC1=S | – | inconclusive: 89.1 µM [inhibitor, partial curve, poor fit] |
| Cc1cc(C)c2c(=O)n(CC(=O)Nc3cccc(F)c3)sc2n1 | inactive: -112% | – |
| COc1ccc2c(c1OC)C(=O)N(c1ccc(OCc3ccccc3)cc1)C2=O | inactive: 2.76% | – |
| COc1cccc(/C=N/NC(=O)Cn2cnc3c2c(=O)n(C)c(=O)n3C)c1OC | – | inconclusive: 100 µM [inhibitor, single point] |
| Cc1oc(-c2ccccc2)cc1C(=O)Nc1cccc(/C=C/C(=O)O)c1 | – | inconclusive: 50.1 µM [inhibitor, partial curve, poor fit] |
| CC(C)c1nnc(NC(=O)COc2ccccc2[N+](=O)[O-])s1 | inactive: -4.15% | – |
| COc1ccc(-n2c(-c3cc(-c4ccccc4)sc3N)n[nH]c2=S)cc1 | – | inconclusive: 70.8 µM [inhibitor, partial curve, poor fit] |
| COc1ccccc1NC(=O)CSC(N)=O | – | inconclusive: 17.8 µM [inhibitor, full curve, poor fit] |
| Cc1ccccc1CNC(=O)c1ccc(Cn2c(SCc3ccccc3)nc3cccnc32)cc1 | – | inconclusive: 89.1 µM [inhibitor, single point] |
| CCN(CC)CCC(=O)N1C/C(=C/c2ccccc2)C(=O)/C(=C\c2ccccc2)C1 | – | inconclusive: 17.8 µM [inhibitor, full curve, poor fit] |
| Cc1ccc(SCC(=O)OC(C)C(=O)NCc2ccccc2)cc1 (configuration not stated) | inactive: -7.04% | – |
| CCCCC1(C(=O)OCC)CC(CSC(=N)N)OC1=O (configuration not stated) | inactive: -7.96% | – |
| CCc1ccc(C(=O)Nc2cc3c(cc2Cl)OCCCO3)cc1 | inactive: -15.3% | – |
| Cc1cc(CNC(=O)[C@H]2C[C@@H]2[C@H](NP(=O)(c2ccccc2)c2ccccc2)c2ccccc2)nn1C | – | inconclusive: 50.1 µM [inhibitor, partial curve, poor fit] |
| Cc1cccc(-n2c(N)c(C(=O)N3CCN(C)CC3)sc2=S)c1 | – | inconclusive: 28.2 µM [inhibitor, full curve, poor fit] |
| CCCCC(=O)Nc1ccc(C(=O)OCc2cc(=O)n3ccsc3n2)cc1 | inactive: -10.1% | – |
| O=S(=O)(c1ccccc1)c1nc(-c2ccco2)oc1SCc1ccc(F)cc1 | inactive: 14.8% | – |
| CCn1c(=O)c(C(=O)NCCc2ccccc2)c(O)c2ccccc21 | inactive: -1.29% | – |
| COc1cc(/C=N/NC(N)=S)ccc1OCc1ccc(C)cc1 | – | inconclusive: 112 µM [inhibitor, partial curve, poor fit] |
| Cc1ccc(S(=O)(=O)NCC(c2ccc3c(c2)OCO3)N2CCOCC2)cc1 (configuration not stated) | inactive: 10.8% | – |
| CC(C)c1ccc(C2C3=C(CC(C)(C)CC3=O)NC3=C2C(=O)c2ccccc23)cc1 (configuration not stated) | inactive: -36.7% | – |
| Cc1ccccc1-c1nc(CN(C)C(C)c2ccon2)c(C)o1 (configuration not stated) | – | inconclusive: 79.4 µM [inhibitor, partial curve, poor fit] |
| COc1ccc(NCc2cc(=O)[nH]c3ccccc23)cc1 | – | inconclusive: 56.2 µM [inhibitor, partial curve, poor fit] |

| Structure (SMILES) | activity change, negative = inhibition | Potency |
| --- | --- | --- |
| Cc1cc(C)c2ccc(C(=O)O)nc2c1O | inactive: 1.4% [at 56.9 µM] | – |
| CCC(=O)N(Cc1ccco1)c1nc(C(=O)Nc2ccc(Cl)cc2)c(C)s1 | – | inconclusive: 79.4 µM [inhibitor, partial curve, poor fit] |
| COc1cc(-c2nnc(COc3ccc4ccccc4c3)o2)cc(OC)c1OC | inactive: 9.91% | – |
| CC1=NN(c2ccccc2)C(=O)/C1=C\c1ccc(Oc2ccc([N+](=O)[O-])cc2[N+](=O)[O-])cc1 | – | inconclusive: 17.8 µM [inhibitor, full curve, poor fit] |
| Cc1cc(SCC(=O)c2ccccc2)nc(=O)[nH]1 | – | inconclusive: 50.1 µM [inhibitor, partial curve, poor fit] |
| Cc1ccc(S(=O)(=O)C2(C(=O)Nc3cccnc3)CC2)cc1 | inactive: -16.3% | – |
| O=C(N/N=C/c1ccccc1)c1ccc(CN2C(=O)c3cccc4cccc2c34)cc1 | – | inconclusive: 44.7 µM [inhibitor, partial curve, poor fit] |
| CSc1ccc(/C=C/C(=O)Nc2ccccc2)cc1 | inactive: -5.45% | – |
| Cc1ccc(-c2cc(C(=O)Nc3cccnc3)c3ccccc3n2)o1 | – | inconclusive: 31.6 µM [inhibitor, full curve, poor fit] |
| COc1cc(/C=C2\C(=O)ON=C2c2ccc(Cl)cc2)ccc1O | – | inconclusive: 31.6 µM [inhibitor, full curve, poor fit] |
| O=C(Cc1ccc(Br)cc1)Nc1ccc(S(=O)(=O)NCC2CCCO2)cc1 (configuration not stated) | – | inconclusive: 17.8 µM [inhibitor, full curve, poor fit] |
| Cc1nnnn1/C(=C\c1ccccc1)C(=O)OCC(=O)N1CC2(C)CC1CC(C)(C)C2 (configuration not stated) | – | inconclusive: 17.8 µM [inhibitor, full curve, poor fit] |
| O=C(Nc1cc2c(cc1C(=O)O)OCCCO2)c1ccc(C(F)(F)F)cc1 | – | inconclusive: 100 µM [inhibitor, single point] |
| O=C(Nc1c2c(nn1-c1ccc(Cl)cc1)CS(=O)(=O)C2)c1cccc(Cl)c1 | inactive: 20.5% | – |
| Cc1cc(N2CCN(c3nc(-c4ccc([N+](=O)[O-])cc4)cs3)CC2)c2ccccc2n1 | – | inconclusive: 79.4 µM [inhibitor, partial curve, poor fit] |
| O=C(O)/C=C/C(=O)NNc1ccc([N+](=O)[O-])cc1 | – | inconclusive: 44.7 µM [inhibitor, partial curve, poor fit] |
| COc1ccc(C(C#N)=C2C=CC(=NO)C(C)=C2Cl)cc1 | – | inconclusive: 100 µM [inhibitor, partial curve, poor fit] |
| O=C(NCCc1cccs1)C(c1ccccc1)c1ccccc1 | inactive: 5.27% | – |
| Cc1ccc(C(=O)NCC(=O)OCC(=O)Nc2ccc3[nH]c(=O)[nH]c3c2)cc1 | inactive: -13.3% | – |
| CC(=O)c1ccc(N2CCN(C(=O)C3CCCN(S(=O)(=O)c4c(C)[nH]c(=O)[nH]c4=O)C3)CC2)cc1 (configuration not stated) | – | inconclusive: 35.5 µM [inhibitor, full curve, poor fit] |
| CN(CC(=O)Nc1ccc(N2CCOCC2)cc1)Cc1c(O)ccc2ccccc12 | – | inconclusive: 50.1 µM [inhibitor, partial curve, poor fit] |
